Laboratory results published in paper PMC4336329 (PLoS ONE, 2015).
In all, about 310,000 compounds went through this assay and about 2,200 (0.71%) showed an effect of 50% or more. The effect is printed as a negative number. The list shows a part of the results.

molecular target: human ether-à-go-go-related gene (hERG) potassium channel (human, UniProt Q12809); assay: primary screen, population patch clamp on CHO cells stably expressing hERG
Sequence (Q12809 whole entry, looked up): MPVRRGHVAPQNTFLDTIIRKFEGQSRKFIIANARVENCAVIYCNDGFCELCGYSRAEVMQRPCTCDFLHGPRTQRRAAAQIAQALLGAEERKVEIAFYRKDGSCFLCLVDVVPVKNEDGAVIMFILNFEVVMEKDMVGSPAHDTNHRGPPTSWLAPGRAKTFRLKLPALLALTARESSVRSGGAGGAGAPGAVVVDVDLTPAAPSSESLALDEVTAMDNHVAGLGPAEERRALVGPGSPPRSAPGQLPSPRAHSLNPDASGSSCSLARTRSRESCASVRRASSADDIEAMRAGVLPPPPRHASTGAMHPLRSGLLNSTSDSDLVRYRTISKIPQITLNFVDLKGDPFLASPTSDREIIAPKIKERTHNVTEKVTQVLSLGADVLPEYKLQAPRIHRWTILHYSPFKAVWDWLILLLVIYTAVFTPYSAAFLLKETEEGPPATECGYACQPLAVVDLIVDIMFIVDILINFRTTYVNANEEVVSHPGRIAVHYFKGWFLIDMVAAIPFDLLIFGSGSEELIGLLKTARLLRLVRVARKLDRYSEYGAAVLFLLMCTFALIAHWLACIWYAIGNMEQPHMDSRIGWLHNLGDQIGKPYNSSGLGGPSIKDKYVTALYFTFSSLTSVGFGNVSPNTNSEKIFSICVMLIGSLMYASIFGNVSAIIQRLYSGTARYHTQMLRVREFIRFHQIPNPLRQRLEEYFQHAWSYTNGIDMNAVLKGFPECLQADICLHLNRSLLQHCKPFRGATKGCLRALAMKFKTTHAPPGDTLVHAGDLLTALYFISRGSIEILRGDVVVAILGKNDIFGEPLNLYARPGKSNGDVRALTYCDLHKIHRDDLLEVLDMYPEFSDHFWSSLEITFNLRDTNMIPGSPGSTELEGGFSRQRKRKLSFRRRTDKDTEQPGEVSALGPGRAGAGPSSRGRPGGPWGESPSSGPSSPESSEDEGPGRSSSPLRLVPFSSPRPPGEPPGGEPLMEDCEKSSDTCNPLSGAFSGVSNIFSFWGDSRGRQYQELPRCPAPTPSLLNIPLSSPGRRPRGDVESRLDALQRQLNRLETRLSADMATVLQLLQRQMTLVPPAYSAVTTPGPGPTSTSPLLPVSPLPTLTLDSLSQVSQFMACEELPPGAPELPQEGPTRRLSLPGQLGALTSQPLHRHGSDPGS

SMILES | hERG current change (%, negative = inhibition) at 1uM [%]
O=C1CCc2cc(S(=O)(=O)N3CCCCC3)cc3c2N1CC3 | 10.1
Cc1ccc(C)c(OCCn2cc(C(=O)O)c3ccccc32)c1 | 9.49
Cc1cccc(OCCC(=O)NCC(=O)Nc2c(C)cccc2C)c1 | 9.32
COCCn1nnnc1C(c1cc2c(C)cc(C)cc2[nH]c1=O)N1CCCCCC1 (stereo not shown) | 10.2
O=C(Nc1ccccc1N1CCOCC1)c1cccnc1 | 11.2
O=c1cc(-c2cccs2)oc2ccc(Cl)cc12 | 7.79
CCN1CCN(Cc2ccc(NC(=O)c3cc(NC(=O)c4cc(-c5ccc(OC)cc5)n[nH]4)cc(OC)c3)cc2C(F)(F)F)CC1 | 10.4
Oc1c(C(c2cccs2)N2CCN(c3ccc(F)cc3)CC2)sc2ncnn12 (stereo not shown) | -30
COc1ccc(C(=O)CSc2nnc(CNC(=O)c3ccccc3F)n2C)cc1OC | 18.2
Cc1ccc(S(=O)(=O)N(C)c2c(C)ccc(S(=O)(=O)N3CCN(C)CC3)c2C)cc1 | -7.59
COc1ccc(C(=O)OCC[N+]2(C)CCOCC2)cc1.[I-] | 16.2
COc1cccc(C2N(c3ccccn3)C(=O)C3CCCN32)c1OC (stereo not shown) | 10
O=[N+]([O-])c1cc(Cl)c2cccnc2c1O | 12.3
CCOc1ccc(N2CC(C(=O)Nc3ccccc3C(=O)NC3CC3)CC2=O)cc1 (stereo not shown) | -26.7
N#CCCN(C(=O)COC(=O)c1ccc(CNS(=O)(=O)c2ccc(F)c(Cl)c2)cc1)c1ccc(F)cc1 | 7.19
C=CCn1c(NCCc2ccccc2)nc2c1c(=O)n(C)c(=O)n2C | 4.06
O=C(Cc1cccs1)Nc1cc(SCCO)cc([N+](=O)[O-])c1 | 1.98
Cc1ccc(COC(=O)c2cccc(S(=O)(=O)N3CCCCCC3)c2)cc1 | -3.44
CCn1nnnc1SCC(=O)c1cc(Cl)ccc1OC | 0.289
COc1cccc(-c2ccc(-c3noc(-c4cccs4)n3)c(OC)n2)c1 | 5.01
C/C(=C\C(=O)c1ccc(F)cc1)NCc1ccc2c(c1)OCO2 | 11.6
C=C(C)[C@@H]1C2C(=O)O[C@H]1[C@H]1OC(=O)[C@@]34OC3C[C@]2(O)[C@@]14C (stereo partly shown) | 12.2
O=C1c2ccccc2C(=O)N1CCSc1nnc(-c2ccco2)n1Cc1ccccc1 | -51.1
CCOC(=O)c1c(SCc2ccccc2)n[nH]c1N | 15.7
CC(=O)N1CCCc2cc(S(=O)(=O)N3CCC(C)CC3)ccc21 | -5.53
CCCOC(=O)CSC1=C(C#N)C(c2ccccc2Cl)CC(=O)N1 (stereo not shown) | 9.53
COc1ccc(N2CCN(C(=O)c3ccc(C)c(Cl)c3)CC2)cc1 | -7.97
CCCCNC(=S)NNC(=O)c1csc(CC)c1 | 0.456

SMILES | hERG current change (%, negative = inhibition) at 1uM [%]
CCN(CC)C(=O)Cn1cc(C(=O)C(=O)N2CCN(Cc3ccccc3)CC2)c2ccccc21 | 15.5
CC1(C)Cc2c(cnn2-c2ccccc2)C(=O)/C1=N\NC(=O)c1ccccc1 | 16.8
CCOc1ccc(C2C3=C(CCCC3=O)Nc3nc(C(F)(F)F)nn32)cc1OC (stereo not shown) | -1.44
CCOC(=O)c1ccc(NC(=S)N(CCN2CCCCCC2)Cc2ccco2)cc1 | -87.2
CCOc1ccc(NC(=O)CCn2c(=S)oc3ccccc32)cc1 | 11.7
NC(=O)CC(NC(=O)Cc1ccc(Br)cc1)c1ccc(NC2CCCCCC2)c([N+](=O)[O-])c1 (stereo not shown) | 3.66
O=C(COc1ccc(-c2ccccc2)cc1)N/N=C/c1cc(O)ccc1Br | 3.69
O=C(O)CC1SC(=Nc2cccc(O)c2)NC1=O (stereo not shown) | 9.05
O=C(COC(=O)CNC(=O)c1ccc(Br)cc1)Nc1nnc(-c2ccccc2)o1 | 12.1
CCCOc1ccc(C2C(=O)N(C3CCCCC3)CC(=O)N2CCC)cc1OC (stereo not shown) | 8.7
Cc1ccc(C)c(/C(O)=C2\C(=O)C(=O)N(CCCn3ccnc3)C2c2ccncc2)c1 (stereo not shown) | 12.8
C/C(=N\NC(=O)c1ccccc1)c1ccc2c(c1)OCO2 | 21.2
O=C(Nc1cccc2cccnc12)c1cccc([N+](=O)[O-])c1 | 10.6
COc1ccc(OCCN2C(=O)NC(C)(c3ccc(C)cc3)C2=O)cc1 (stereo not shown) | -10.6
CCn1c(SCC(=O)NC(C)C)nnc1-c1cccs1 | 8.06
CCOc1ccc(C(=O)/C=C/Nc2ccc(S(=O)(=O)Nc3onc(C)c3C)cc2)cc1 | 7.2
CCCNS(=O)(=O)c1ccc(-n2cnnn2)c(OC)c1 | 4.13
O=C(COc1ccccc1)N(Cc1ccco1)c1ccc(O)cc1 | 8.59
Cc1cccc(NS(=O)(=O)c2ccc([N+](=O)[O-])cc2)n1 | 6.95
COc1ccc(CN(C(=O)c2oc3ccccc3c2C)C2CCS(=O)(=O)C2)cc1 (stereo not shown) | -2.96
O=C1Nc2ccc(Br)cc2C1=C1CCCCC1 | 21.6
O=C(CCC(=O)c1ccccc1)NCCc1c[nH]c2ccccc12 | 5.22
CCOC(=O)CN1C(=N)N(c2nc(NC(C)C)nc(OC)n2)CC1=O | 7.09
[O-]/[N+](=C/c1ccc(F)cc1)c1ccc(Cl)cc1 | 10.8
Cc1ccc(-n2c(Cc3cccn3C)nnc2SCC(=O)Nc2ccc3c(c2)OCO3)cc1 | 0.763
Cc1cc(/C=C2/SC(=S)N(c3ccc([N+](=O)[O-])cc3)C2=O)c(C)n1-c1cccnc1 | 13.2
CC(C(=O)c1ccccc1)[n+]1cccc(Br)c1.[Br-] (stereo not shown) | 4.99
